# According to the BET-seq Pho4 binding data (Le et al. 2018):
# This is one part of the list. The energies were worked out here from pooled read counts, against the library average; single values are noisy.
# Target: T1, Pho4 (S. cerevisiae) (UniProt P07270)
# T1 sequence: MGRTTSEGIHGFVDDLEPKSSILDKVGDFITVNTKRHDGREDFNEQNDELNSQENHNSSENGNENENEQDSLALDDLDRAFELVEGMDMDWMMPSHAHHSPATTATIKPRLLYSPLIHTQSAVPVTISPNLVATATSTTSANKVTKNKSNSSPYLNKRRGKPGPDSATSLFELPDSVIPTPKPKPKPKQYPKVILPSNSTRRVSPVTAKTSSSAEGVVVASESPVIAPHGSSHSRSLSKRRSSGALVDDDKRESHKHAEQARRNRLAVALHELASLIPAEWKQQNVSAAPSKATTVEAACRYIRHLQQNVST
# Assay: relative binding free energy (BET-seq); higher = weaker binding
# Conditions: reference: library average
row,Sequence,relative binding free energy [kcal/mol]
1,GGGTGCACGTGGACGG,0.1
2,GTTGACACGTGGACTT,0.12
3,AGGATCACGTGCGGTC,0.24
4,ACTAGCACGTGAGGGT,0.18
5,AGTATCACGTGATGTA,0.11
6,ATCGGCACGTGATGGA,0.08
7,AGTGGCACGTGAAGAG,0.29
8,TGGGACACGTGGCGCG,-0.12
9,AGTGACACGTGCAGTG,-0.17
10,TGCTTCACGTGGGATC,0.36
11,GAGTTCACGTGTATTT,0.18
12,GTGCGCACGTGGGGTT,-0.31
13,GGACTCACGTGGTGAT,0.28
14,TACTGCACGTGGGTGA,-0.09
15,GTAAGCACGTGATGTG,0.03
16,TAATTCACGTGTTTTA,0.28
17,TGCCTCACGTGGTGAG,0.23
18,GGTGTCACGTGGCTCT,0.11
19,GTCTGCACGTGGGATG,0.05
20,GTATTCACGTGATGTG,0.33
21,GGAGCCACGTGTAGTT,0.09
22,GTGGACACGTGGGGCG,-0.07
23,GATGGCACGTGAGACG,0.18

row,Sequence,relative binding free energy [kcal/mol]
1,ATGTACACGTGGTCAT,0.01
2,ATTAGCACGTGTAGGG,-0.1
3,AAGATCACGTGTTAGT,0.16
4,TGATTCACGTGCGTCG,0.33
5,TCGTTCACGTGGCGGC,0.43
6,GTTTGCACGTGTCGTC,0.1
7,ACGTGCACGTGGGAGG,-0.14
8,GTGCTCACGTGTGGGG,0.18
9,GAGGGCACGTGGCTAG,-0.14
10,CTGTTCACGTGTGAGG,0.44
11,ATGGGCACGTGAAGAT,0.17
12,GGTGTCACGTGTCATG,0.08
13,GGAGTCACGTGATGTC,0.38
14,GGTAACACGTGCTGGT,-0.06
15,TTATACACGTGGTGCT,0.02
16,TTGTCCACGTGTATGG,0.14
17,ACAGGCACGTGTGGAT,0.01
18,AGATGCACGTGGTGCG,-0.23
19,TGGAACACGTGGAGTA,0
20,TATGTCACGTGGCTCG,0.01
21,AATTGCACGTGGATCG,0
22,TAGTTCACGTGTTGCT,0.26
23,AAATACACGTGTTAGG,0.24

row,Sequence,relative binding free energy [kcal/mol]
1,TGAAGCACGTGTTGAG,-0.04
2,CTGGGCACGTGTGGTC,-0.05
3,TACGTCACGTGGGCGA,0.05
4,AGATACACGTGGTTAG,0.08
5,GGTGACACGTGGTAGC,-0.12
6,ATTTACACGTGTTGCG,0.13
7,TGTAACACGTGGTGGT,-0.01
8,GCGTACACGTGTTGTT,0.12
9,GTTTGCACGTGACGTG,0.13
10,AGAGTCACGTGGGGTC,-0.01
11,GGGCGCACGTGGATGC,0.09
12,ACTTTCACGTGCGGGG,0.18
13,TGGGACACGTGATGAT,0.23
14,GGTCTCACGTGTTGTC,0.26
15,CAAGTCACGTGTTTGT,0.06
16,TATGTCACGTGAGGCC,0.33
17,GAGGCCACGTGTGGGA,0.04
18,CGTGGCACGTGTGTTA,-0.11
19,AAAAGCACGTGTTTTG,-0.26
20,TGCCGCACGTGGGTGG,-0.33
21,AGGTGCACGTGGTCTG,-0.16
22,AGCTGCACGTGGGATG,-0.26
23,ATGAGCACGTGTGTAA,-0.05

row,Sequence,relative binding free energy [kcal/mol]
1,GAAATCACGTGGGTTT,0.21
2,TTAAGCACGTGTTGGG,-0.11
3,GGATACACGTGTTGCG,0.03
4,TTATACACGTGTTGAG,0.1
5,ATTCACACGTGTTTTA,0.05
6,TTGGACACGTGTATGC,0.08
7,AGTATCACGTGGGGCC,-0.03
8,ATTAGCACGTGGGGAG,-0.19
9,AGGGACACGTGCGGCG,-0.02
10,GGATGCACGTGTTTTT,0.19
11,TGGTTCACGTGGTTGA,0.27
12,TTCTTCACGTGGTATG,0.18
13,TTTAGCACGTGTAGCT,0.05
14,TGTGGCACGTGCTTGC,-0.22
15,GTTGGCACGTGACTGG,0.16
16,GGTTACACGTGGCTCT,0.16
17,TTTGGCACGTGTTGCC,-0.05
18,TTAAGCACGTGGGTGA,-0.24
19,GTGGTCACGTGTTTGG,0.16
20,ACAAGCACGTGGTAGG,-0.11
21,TGGTACACGTGTCAGT,0.14
22,TTTGACACGTGGTTGC,0.01
23,TGAAACACGTGATTTT,0.17

row,Sequence,relative binding free energy [kcal/mol]
1,ATGCGCACGTGAGGGG,0.01
2,TTGTGCACGTGGGCGA,-0.24
3,ATATGCACGTGGTGAT,-0.31
4,ATTTTCACGTGATGTC,0.34
5,GGTCACACGTGGTGAT,0.07
6,TCGGTCACGTGGTTAA,0.14
7,GTGGACACGTGGGAGT,-0.05
8,TGGTACACGTGTAATA,0.33
9,AGGGTCACGTGCTTGT,-0.07
10,TAGGTCACGTGTAGAT,0.26
11,TTTTCCACGTGAATGT,0.43
12,CGTATCACGTGGGAGT,0
13,CGGTTCACGTGGGCGG,0.09
14,GTGCGCACGTGGGAGT,-0.11
15,TGGAGCACGTGGTAGA,-0.05
16,TTCGGCACGTGTTATG,-0.17
17,ACTATCACGTGGAGGG,0.08
18,ATTAGCACGTGAAGGG,0.19
19,TGATTCACGTGAGGTT,0.46
20,AGACTCACGTGGGTGA,0.08
21,GGGATCACGTGTCGTA,0.12
22,GGATTCACGTGCTTTT,0.34
23,TGAAGCACGTGCAGTG,-0.1
